For assay [1], the target named is TIP60-Flag (Tip60-H3F knock-in mice) (mouse) (UniProt Q8CHK4). The assay is described as follows: co-IP; anti-Flag IP and Western blot from hippocampal nuclear lysates of wild-type, Npas4-FH and Tip60-Flag mice, unstimulated (0 h) and 2 h after kainic acid; conditions as for the IP–MS.
Assay [2] deals with T1, Flag-HA-tagged full length NPAS4 (amino acids 1-802) (UniProt Q8BGD7).
T1 sequence: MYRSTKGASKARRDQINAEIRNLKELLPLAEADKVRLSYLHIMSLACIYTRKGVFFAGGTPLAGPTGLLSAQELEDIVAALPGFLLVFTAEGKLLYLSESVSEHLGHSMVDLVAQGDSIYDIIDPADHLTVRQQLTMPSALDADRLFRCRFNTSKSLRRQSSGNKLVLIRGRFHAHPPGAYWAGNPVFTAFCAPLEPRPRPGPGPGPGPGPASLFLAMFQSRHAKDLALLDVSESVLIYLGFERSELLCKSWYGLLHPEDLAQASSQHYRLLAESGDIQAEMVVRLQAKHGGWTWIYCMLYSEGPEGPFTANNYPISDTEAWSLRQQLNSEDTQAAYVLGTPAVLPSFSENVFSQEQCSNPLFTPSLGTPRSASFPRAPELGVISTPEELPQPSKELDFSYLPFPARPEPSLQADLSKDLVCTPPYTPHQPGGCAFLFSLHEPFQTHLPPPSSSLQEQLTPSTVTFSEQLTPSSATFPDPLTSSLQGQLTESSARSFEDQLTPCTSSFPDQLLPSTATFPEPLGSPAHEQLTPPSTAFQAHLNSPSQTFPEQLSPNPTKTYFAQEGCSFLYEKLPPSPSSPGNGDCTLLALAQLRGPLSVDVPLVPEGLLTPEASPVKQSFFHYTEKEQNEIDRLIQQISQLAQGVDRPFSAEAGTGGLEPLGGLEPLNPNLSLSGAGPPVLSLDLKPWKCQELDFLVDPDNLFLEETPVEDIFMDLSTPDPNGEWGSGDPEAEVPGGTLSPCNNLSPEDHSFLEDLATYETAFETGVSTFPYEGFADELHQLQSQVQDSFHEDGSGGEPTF
Nature of the assay: co-IP; sequential anti-Flag and anti-HA IP from nuclear lysates of transfected HEK293T cells, Western blot for NPAS4, ARNT2, TRRAP and DMAP1; washes with 250 mM NaCl; Flag-HA nuclear GFP as control. For orientation: A western blot detects proteins with antibodies after separation by electrophoresis.

Sequences of proteins named here, by UniProt entry; tags and fusion partners are left off. A change or cut given only in a name is not applied to a line headed by its entry.
UniProt Q8CHK4: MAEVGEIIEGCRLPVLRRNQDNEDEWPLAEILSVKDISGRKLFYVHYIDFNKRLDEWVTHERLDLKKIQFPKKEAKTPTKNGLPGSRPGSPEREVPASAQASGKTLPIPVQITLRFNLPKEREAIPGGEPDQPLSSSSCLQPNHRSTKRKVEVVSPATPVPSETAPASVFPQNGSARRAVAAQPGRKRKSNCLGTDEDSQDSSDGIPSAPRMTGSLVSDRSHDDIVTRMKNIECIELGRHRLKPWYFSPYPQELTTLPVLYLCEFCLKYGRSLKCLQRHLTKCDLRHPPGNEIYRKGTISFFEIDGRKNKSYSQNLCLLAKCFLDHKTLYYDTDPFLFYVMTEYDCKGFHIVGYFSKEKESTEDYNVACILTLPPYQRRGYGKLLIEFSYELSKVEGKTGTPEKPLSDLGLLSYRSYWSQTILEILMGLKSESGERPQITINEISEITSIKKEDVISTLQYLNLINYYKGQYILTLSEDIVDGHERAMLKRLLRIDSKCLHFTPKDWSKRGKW
UniProt P01101: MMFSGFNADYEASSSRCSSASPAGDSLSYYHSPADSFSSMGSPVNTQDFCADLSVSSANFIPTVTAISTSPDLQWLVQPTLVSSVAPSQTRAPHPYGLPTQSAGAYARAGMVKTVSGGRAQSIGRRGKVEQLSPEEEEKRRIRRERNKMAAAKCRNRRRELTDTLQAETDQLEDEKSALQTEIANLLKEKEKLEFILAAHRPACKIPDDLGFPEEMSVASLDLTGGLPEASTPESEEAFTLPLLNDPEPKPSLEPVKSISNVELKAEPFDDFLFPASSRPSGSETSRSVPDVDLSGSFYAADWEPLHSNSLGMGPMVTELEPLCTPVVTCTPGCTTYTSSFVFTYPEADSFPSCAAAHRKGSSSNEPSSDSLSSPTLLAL
UniProt Q9Y4A5: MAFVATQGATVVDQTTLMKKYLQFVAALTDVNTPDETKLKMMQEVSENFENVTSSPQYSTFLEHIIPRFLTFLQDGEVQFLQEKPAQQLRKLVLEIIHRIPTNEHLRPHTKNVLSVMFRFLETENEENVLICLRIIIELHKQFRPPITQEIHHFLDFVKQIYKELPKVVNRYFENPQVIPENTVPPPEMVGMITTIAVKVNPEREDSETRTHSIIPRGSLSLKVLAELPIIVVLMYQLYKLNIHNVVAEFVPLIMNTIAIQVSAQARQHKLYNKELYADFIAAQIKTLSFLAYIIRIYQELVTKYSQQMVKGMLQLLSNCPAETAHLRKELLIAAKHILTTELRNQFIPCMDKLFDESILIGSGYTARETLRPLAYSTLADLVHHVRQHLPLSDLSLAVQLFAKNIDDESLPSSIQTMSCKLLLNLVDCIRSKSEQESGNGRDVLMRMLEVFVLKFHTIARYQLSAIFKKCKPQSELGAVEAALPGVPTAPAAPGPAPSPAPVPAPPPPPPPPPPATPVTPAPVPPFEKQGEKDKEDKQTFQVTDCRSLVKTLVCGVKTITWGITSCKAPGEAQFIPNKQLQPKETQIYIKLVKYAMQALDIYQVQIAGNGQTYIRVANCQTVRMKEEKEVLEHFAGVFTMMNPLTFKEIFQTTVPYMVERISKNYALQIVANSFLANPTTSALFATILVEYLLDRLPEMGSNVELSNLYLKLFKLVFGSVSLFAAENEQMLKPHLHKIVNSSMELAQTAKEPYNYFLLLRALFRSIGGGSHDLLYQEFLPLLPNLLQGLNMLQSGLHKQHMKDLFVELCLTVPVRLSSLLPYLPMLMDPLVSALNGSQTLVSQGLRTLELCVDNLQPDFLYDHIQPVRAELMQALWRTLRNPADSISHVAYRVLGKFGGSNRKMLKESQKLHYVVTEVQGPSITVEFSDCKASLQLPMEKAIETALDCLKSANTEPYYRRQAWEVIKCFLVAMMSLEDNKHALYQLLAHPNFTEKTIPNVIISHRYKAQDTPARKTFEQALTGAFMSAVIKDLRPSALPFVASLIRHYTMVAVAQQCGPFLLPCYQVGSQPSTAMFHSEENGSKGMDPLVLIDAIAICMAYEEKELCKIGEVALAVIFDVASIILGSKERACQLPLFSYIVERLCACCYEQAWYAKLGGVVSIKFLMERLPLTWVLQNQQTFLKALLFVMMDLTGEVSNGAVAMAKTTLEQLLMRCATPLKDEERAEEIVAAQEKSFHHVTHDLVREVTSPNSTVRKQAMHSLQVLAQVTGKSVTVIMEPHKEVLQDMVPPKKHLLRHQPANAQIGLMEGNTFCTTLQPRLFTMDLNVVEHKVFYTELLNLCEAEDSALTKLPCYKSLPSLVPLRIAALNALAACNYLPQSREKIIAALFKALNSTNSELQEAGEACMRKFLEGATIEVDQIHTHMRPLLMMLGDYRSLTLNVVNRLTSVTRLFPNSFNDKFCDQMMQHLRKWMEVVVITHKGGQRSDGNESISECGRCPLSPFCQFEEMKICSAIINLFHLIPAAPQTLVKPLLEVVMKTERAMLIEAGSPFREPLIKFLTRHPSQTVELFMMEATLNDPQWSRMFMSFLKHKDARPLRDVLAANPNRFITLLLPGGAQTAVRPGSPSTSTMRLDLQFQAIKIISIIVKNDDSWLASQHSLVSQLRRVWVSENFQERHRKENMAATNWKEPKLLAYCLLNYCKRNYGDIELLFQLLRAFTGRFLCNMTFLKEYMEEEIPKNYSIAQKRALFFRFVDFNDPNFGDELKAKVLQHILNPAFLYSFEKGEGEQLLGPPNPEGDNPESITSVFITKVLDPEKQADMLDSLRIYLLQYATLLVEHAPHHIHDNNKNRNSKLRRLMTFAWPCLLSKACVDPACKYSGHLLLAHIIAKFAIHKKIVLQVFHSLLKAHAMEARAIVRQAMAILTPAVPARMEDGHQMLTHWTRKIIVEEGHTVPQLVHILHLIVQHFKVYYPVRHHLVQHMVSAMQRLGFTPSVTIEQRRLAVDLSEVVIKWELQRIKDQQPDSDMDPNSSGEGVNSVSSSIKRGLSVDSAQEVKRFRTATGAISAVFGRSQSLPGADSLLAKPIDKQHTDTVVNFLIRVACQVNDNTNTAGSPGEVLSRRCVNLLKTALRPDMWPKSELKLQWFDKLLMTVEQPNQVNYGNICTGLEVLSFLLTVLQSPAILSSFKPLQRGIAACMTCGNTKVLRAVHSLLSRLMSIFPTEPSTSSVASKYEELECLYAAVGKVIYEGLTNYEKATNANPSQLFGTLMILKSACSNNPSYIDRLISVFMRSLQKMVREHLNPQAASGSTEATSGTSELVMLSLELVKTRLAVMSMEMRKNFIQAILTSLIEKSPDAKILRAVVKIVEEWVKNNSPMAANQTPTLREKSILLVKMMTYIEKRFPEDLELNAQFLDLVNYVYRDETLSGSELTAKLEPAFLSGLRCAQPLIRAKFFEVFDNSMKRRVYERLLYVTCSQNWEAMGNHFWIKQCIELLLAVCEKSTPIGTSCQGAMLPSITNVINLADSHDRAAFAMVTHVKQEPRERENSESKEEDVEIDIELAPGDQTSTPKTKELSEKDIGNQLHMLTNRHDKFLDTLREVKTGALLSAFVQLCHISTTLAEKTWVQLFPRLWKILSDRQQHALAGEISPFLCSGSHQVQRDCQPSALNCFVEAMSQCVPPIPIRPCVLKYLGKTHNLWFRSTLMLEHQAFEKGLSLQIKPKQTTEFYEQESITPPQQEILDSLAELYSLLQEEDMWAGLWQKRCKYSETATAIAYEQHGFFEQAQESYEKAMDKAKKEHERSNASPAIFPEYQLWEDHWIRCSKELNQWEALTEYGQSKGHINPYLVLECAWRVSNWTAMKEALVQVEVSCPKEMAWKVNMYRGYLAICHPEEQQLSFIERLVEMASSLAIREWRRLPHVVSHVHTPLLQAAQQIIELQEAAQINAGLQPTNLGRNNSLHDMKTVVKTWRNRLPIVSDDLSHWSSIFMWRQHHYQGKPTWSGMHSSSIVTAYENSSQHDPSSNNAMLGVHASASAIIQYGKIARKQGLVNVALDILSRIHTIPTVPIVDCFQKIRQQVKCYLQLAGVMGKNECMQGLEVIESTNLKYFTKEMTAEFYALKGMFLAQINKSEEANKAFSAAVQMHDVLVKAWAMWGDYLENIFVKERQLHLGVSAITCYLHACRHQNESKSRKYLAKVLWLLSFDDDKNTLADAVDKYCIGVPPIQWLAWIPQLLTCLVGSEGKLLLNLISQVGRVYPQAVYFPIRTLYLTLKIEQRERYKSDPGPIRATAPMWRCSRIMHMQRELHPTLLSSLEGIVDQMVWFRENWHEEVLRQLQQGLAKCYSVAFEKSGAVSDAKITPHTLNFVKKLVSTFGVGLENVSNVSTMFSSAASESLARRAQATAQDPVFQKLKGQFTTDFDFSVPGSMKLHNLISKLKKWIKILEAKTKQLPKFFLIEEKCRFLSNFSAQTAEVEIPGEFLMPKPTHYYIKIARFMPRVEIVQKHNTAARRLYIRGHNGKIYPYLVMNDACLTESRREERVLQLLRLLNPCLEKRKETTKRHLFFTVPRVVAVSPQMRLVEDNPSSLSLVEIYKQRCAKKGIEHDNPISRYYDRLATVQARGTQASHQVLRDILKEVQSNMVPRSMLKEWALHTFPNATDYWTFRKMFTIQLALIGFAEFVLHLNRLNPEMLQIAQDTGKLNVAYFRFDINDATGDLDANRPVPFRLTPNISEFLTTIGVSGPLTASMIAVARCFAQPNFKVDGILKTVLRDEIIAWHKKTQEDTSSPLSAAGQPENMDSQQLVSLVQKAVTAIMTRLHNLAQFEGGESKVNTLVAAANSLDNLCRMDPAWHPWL
UniProt Q9JI44: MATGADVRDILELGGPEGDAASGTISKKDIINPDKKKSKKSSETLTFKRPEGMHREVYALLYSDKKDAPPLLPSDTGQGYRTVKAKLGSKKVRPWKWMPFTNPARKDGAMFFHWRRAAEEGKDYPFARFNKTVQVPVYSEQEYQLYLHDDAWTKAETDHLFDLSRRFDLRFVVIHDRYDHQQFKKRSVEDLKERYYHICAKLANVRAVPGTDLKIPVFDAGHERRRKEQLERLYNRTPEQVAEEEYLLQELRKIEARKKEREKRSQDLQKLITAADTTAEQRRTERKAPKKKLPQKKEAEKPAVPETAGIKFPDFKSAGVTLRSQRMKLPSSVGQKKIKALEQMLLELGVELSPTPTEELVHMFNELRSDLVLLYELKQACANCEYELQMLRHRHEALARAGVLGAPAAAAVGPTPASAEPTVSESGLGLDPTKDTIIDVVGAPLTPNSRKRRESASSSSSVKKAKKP
UniProt Q9NPF5: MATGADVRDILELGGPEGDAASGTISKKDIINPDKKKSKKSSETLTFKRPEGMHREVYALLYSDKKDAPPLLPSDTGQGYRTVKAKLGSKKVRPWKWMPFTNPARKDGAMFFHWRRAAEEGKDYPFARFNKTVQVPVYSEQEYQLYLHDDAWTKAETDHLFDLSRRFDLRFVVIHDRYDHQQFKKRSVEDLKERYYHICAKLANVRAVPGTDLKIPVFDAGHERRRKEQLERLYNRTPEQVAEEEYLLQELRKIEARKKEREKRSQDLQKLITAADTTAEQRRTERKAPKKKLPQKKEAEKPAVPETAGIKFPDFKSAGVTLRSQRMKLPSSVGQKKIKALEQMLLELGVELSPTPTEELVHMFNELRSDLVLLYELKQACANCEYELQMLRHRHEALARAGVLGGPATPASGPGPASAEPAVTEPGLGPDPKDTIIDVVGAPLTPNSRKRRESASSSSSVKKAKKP

In assay [3] the target is T2, NPAS4–Flag-HA (mouse) (UniProt Q8BGD7).
T2 sequence: T1 sequence
Nature of the assay: co-IP; anti-Flag IP and Western blot from visual cortex (V1) of Npas4–Flag-HA or wild-type mice housed in the dark for 1 week, then 2 h light stimulation; conditions as for the hippocampal IP.

Assay [4] has as its target TIP60-Flag (Tip60-H3F knock-in mice) (mouse) (UniProt Q8CHK4). The assay is described as follows: co-IP; anti-Flag IP and Western blot from low molecular weight fractions (glycerol gradient) of cortical lysates of wild-type, Npas4-FH and Tip60-F mice.
The target is the same in assay [5]. The assay is described as follows: co-IP; anti-Flag IP and Western blot from hippocampal nuclear lysates of wild-type, Npas4-FH and Tip60-Flag mice, unstimulated (0 h) and 2 h after kainic acid; conditions as for the IP–MS. The source holds these as a separate data set.
Assay [6] has the same target. Nature of the assay: co-IP; anti-Flag IP and Western blot from high molecular weight fractions (10–40% glycerol gradient) of cortical nuclear lysates of wild-type, Npas4-FH and Tip60-F mice 2 h after kainic acid; washes with 250 mM NaCl.

These are yes or no findings as the source states them, for the method shown. In cells and extracts the contact can be indirect. Some results given as binding are weak or reduced against the parent protein; the word gives no strength. For part of these data: Where a sequence is shown, tags or fusion partners need not be part of it.

For the molecule FOS (from UniProt P01101 1-380), the binding entry in assay [1] is given as “no binding”.

Regarding TRRAP (from UniProt Q9Y4A5 1-3859), the binding entry in assay [2] was “binds”.

Consider DMAP1 (from UniProt Q9JI44 1-468), for which the binding result in assay [3] is “binds”.

For the molecule EP400 (from UniProt Q8CHI8 1-3072), the binding result in assay [3] is on record as “binds”.

Regarding DMAP1 (from UniProt Q9NPF5 1-467), in assay [2], the binding entry was “binds”.

B1: NPAS4 (protein, UniProt Q8BGD7 1-802)
chain: T1 sequence
For B1, the binding result in assay [4], in assay [5] and in assay [6] was “binds” in each case.

B2: NPAS3 (protein, UniProt Q9QZQ0 1-925)
chain: MGRAGAAANGTPQNVQGITSYQQRITAQHPLPNQSECRKIYRYDGIYCESTYQNLQALRKEKSRDAARSRRGKENFEFYELAKLLPLPAAITSQLDKASIIRLTISYLKMRDFANQGDPPWNLRMEGPPPNTSVKGAQRRRSPSALAIEVFEAHLGSHILQSLDGFVFALNQEGKFLYISETVSIYLGLSQVELTGSSVFDYVHPGDHVEMAEQLGMKLPPGRGLLSQGTTEDAASSASSSSQSETPEPVETTSPSLLTTDNTLERSFFIRMKSTLTKRGVHIKSSGYKVIHITGRLRLRVPLSHGRTVPSQIMGLVVVAHALPPPTINEVRIDCHMFVTRVNMDLNIIYCENRISDYMDLTPVDIVGKRCYHFIHAEDVEGIRHSHLDLLNKGQCVTKYYRWMQKNGGYIWIQSSATIAINAKNANEKNIIWVNYLLSNPEYKDTPMDIAQLPHLPEKASESSETSDSESDSKDTSGITEDNENSKSDEKGNQSENSEDPEPDRKKSGSACDNDMNCNDDGHSSSNPDSRDSDDSFEHSDFEHPKAAEDGFGALGPMQIKVERYVESEADLRLQPCESLTSDSAKDSDSANEAGAQASSKHQKRKRRRKRQKGGSASRRRLSSASSPGLDAGLVEPPRLLSSPHSASVLKIKTEIAEPINFDNESSIWNYPPNREISRNESPYSMTKPPTSEHFPSPQGQGGSIGGGGALHVAIPDSVLTPPGADGTAGRKTQFSGTAPVPSDPLSPPLSASPRDKHPGGGAGSGGGGPGASNSLLYTGDLEALQRLQAGNVVLPLVHRVTGTLAATSTAAQRVYTTGTIRYAPAEVTLAMQGNLLPNAHAVNFVDVNSPGFGLDPKTPMEMLYHHVHRLNMSGPFGGAVSAASLTQMPGGNVFTTAEGLFSTLPFPVYSNGIHAAQTLERKED
For B2, the binding entry in assay [5] is “no binding”.

These data come from article PMC9946837.
